Assay results taken from the supplement of paper PMC11741623.
The list shows a part of the results. Interaction screen of human proteins with wild-type SARS-CoV-2 proteins by split-DHFR complementation in yeast, 1 µg/mL methotrexate. Value = fitness of the pair (three or more lineages) minus that of the viral protein without a human partner, on a scale set by negative (0) and fused positive (1) controls, mean of up to three cultures; higher = more likely to interact. Active = false discovery rate below 0.05 (one-sided t-test) in at least one culture. Nearly all pairs are not hits, and differences among them are mostly noise (correlation between cultures about 0.3); most hits were seen in one culture only. Human sequences are the Swiss-Prot entries looked up by gene name; the clone may be another isoform. NSP2 values were corrected by the authors for a growth advantage. Listed are human proteins with a hit and a random twelfth of the others.

How the values were obtained:
Assay in all cases: yeast fitness gain over the viral ORF with no human partner (scaled fitness); higher = more likely to interact
SARS-CoV-2 M = molecular target: SARS-CoV-2 M
Method: (§1)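 Split mouse DHFR complementation in pooled diploid yeast: human ORFeome clones carry one fragment and viral ORFs the other; barcoded lineages compete in 1 µg/mL methotrexate and fitness is read by barcode sequencing in up to three cultures.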

SARS-CoV-2 N = molecular target: SARS-CoV-2 N
Method: as §1

SARS-CoV-2 NSP1 = molecular target: SARS-CoV-2 NSP1
Method: as §1

SARS-CoV-2 NSP10 = molecular target: SARS-CoV-2 NSP10
Method: as §1

SARS-CoV-2 NSP12 = molecular target: SARS-CoV-2 NSP12
Method: as §1

SARS-CoV-2 NSP13 = molecular target: SARS-CoV-2 NSP13
Method: as §1

SARS-CoV-2 NSP14 = molecular target: SARS-CoV-2 NSP14
Method: as §1

SARS-CoV-2 NSP15 = molecular target: SARS-CoV-2 NSP15
Method: as §1

SARS-CoV-2 NSP16 = molecular target: SARS-CoV-2 NSP16
Method: as §1

SARS-CoV-2 NSP2 = molecular target: SARS-CoV-2 NSP2
Method: as §1

SARS-CoV-2 NSP5 = molecular target: SARS-CoV-2 NSP5
Method: as §1

SARS-CoV-2 NSP6 = molecular target: SARS-CoV-2 NSP6
Method: as §1

SARS-CoV-2 NSP8 = molecular target: SARS-CoV-2 NSP8
Method: as §1

SARS-CoV-2 NSP9 = molecular target: SARS-CoV-2 NSP9
Method: as §1

SARS-CoV-2 ORF10 = molecular target: SARS-CoV-2 ORF10
Method: as §1

SARS-CoV-2 ORF3B = molecular target: SARS-CoV-2 ORF3B
Method: as §1

SARS-CoV-2 ORF6 = molecular target: SARS-CoV-2 ORF6
Method: as §1

SARS-CoV-2 ORF7A = molecular target: SARS-CoV-2 ORF7A
Method: as §1

SARS-CoV-2 ORF7B = molecular target: SARS-CoV-2 ORF7B
Method: as §1

SARS-CoV-2 ORF8 = molecular target: SARS-CoV-2 ORF8
Method: as §1

SARS-CoV-2 ORF9B = molecular target: SARS-CoV-2 ORF9B
Method: as §1

[1] = molecular target: SARS-CoV-2 ORF9Bwu (the 73-codon ORF)
Method: as §1

SARS-CoV-2 S = molecular target: SARS-CoV-2 S
Method: as §1

SARS-CoV-2 NSP4 = molecular target: SARS-CoV-2 NSP4
Method: as §1

SARS-CoV-2 NSP7 = molecular target: SARS-CoV-2 NSP7
Method: as §1

SARS-CoV-2 ORF3A = molecular target: SARS-CoV-2 ORF3A
Method: as §1

Measured: yeast fitness gain

B1: HSPB6, O14558 (protein)
chain: MEIPVPVQPSWLRRASAPLPGLSAPGRLFDQRFGEGLLEAELAALCPTTLAPYYLRAPSVALPVAQVPTDPGHFSVLLDVKHFSPEEIAVKVVGEHVEVHARHEERPDEHGFVAREFHRRYRLPPGVDPAAVTSALSPEGVLSIQAAPASAQAPPPAAAK
inactive: SARS-CoV-2 M -0.0566 | SARS-CoV-2 N -0.0131 | SARS-CoV-2 NSP1 = -0.00178 | SARS-CoV-2 NSP10 = -0.133 | SARS-CoV-2 NSP12 = -0.0955 | SARS-CoV-2 NSP13 = -0.132 | SARS-CoV-2 NSP14 = -0.208 | SARS-CoV-2 NSP15 = -0.0966 | SARS-CoV-2 NSP16 = -0.0492 | SARS-CoV-2 NSP2 = -0.36 | SARS-CoV-2 NSP5 = -0.0296 | SARS-CoV-2 NSP6 = -0.11 | SARS-CoV-2 NSP8 = -0.105 | SARS-CoV-2 NSP9 = -0.0911 | SARS-CoV-2 ORF10 = 0.109 | SARS-CoV-2 ORF3B -0.0674 | SARS-CoV-2 ORF6 = -0.007 | SARS-CoV-2 ORF7A 0.132 | SARS-CoV-2 ORF7B -0.072 | SARS-CoV-2 ORF8 = 0.0477 | SARS-CoV-2 ORF9B 0.0342 | [1] -0.0764 | SARS-CoV-2 S 0.0498

B2: CLDN14, O95500 (protein)
chain: MASTAVQLLGFLLSFLGMVGTLITTILPHWRRTAHVGTNILTAVSYLKGLWMECVWHSTGIYQCQIYRSLLALPQDLQAARALMVISCLLSGIACACAVIGMKCTRCAKGTPAKTTFAILGGTLFILAGLLCMVAVSWTTNDVVQNFYNPLLPSGMKFEIGQALYLGFISSSLSLIGGTLLCLSCQDEAPYRPYQAPPRATTTTANTAPAYQPPAAYKDNRAPSVTSATHSGYRLNDYV
inactive: SARS-CoV-2 M 0.085 | SARS-CoV-2 NSP10 = -0.119 | SARS-CoV-2 NSP12 = -0.0781 | SARS-CoV-2 NSP13 = 0.0553 | SARS-CoV-2 NSP14 = 0.0265 | SARS-CoV-2 NSP16 = 0.0733 | SARS-CoV-2 NSP2 = -0.25 | SARS-CoV-2 NSP4 = -0.0645 | SARS-CoV-2 NSP5 = -0.0605 | SARS-CoV-2 NSP6 = -0.409 | SARS-CoV-2 NSP7 = 0.206 | SARS-CoV-2 NSP8 = -0.0136 | SARS-CoV-2 NSP9 = -0.32 | SARS-CoV-2 ORF10 = 0.0869 | SARS-CoV-2 ORF3B 0.0149 | SARS-CoV-2 ORF6 = -0.0554 | SARS-CoV-2 ORF7A 0.0733 | SARS-CoV-2 ORF7B -0.0276 | SARS-CoV-2 ORF8 = -0.0193 | SARS-CoV-2 ORF9B -0.0587 | [1] -0.0359 | SARS-CoV-2 S -0.0651

B3: KRTAP3-1, Q9BYR8 (protein)
chain: MYCCALRSCSVPTGPATTFCSFDKSCRCGVCLPSTCPHEISLLQPICCDTCPPPCCKPDTYVPTCWLLNNCHPTPGLSGINLTTYVQPGCESPCEPRC
inactive: SARS-CoV-2 M 0.0975 | SARS-CoV-2 N -0.119 | SARS-CoV-2 NSP1 = -0.00576 | SARS-CoV-2 NSP10 = 0.0102 | SARS-CoV-2 NSP12 = 0.022 | SARS-CoV-2 NSP13 = -0.0524 | SARS-CoV-2 NSP15 = -0.0496 | SARS-CoV-2 NSP16 = -0.0329 | SARS-CoV-2 NSP2 = -0.109 | SARS-CoV-2 NSP5 = 0.048 | SARS-CoV-2 NSP6 = -0.0293 | SARS-CoV-2 NSP7 = -0.0166 | SARS-CoV-2 NSP8 = 0.0243 | SARS-CoV-2 NSP9 = -0.201 | SARS-CoV-2 ORF10 = 0.0412 | SARS-CoV-2 ORF3A 0.0149 | SARS-CoV-2 ORF3B -0.0366 | SARS-CoV-2 ORF6 = -0.0253 | SARS-CoV-2 ORF7A 0.0224 | SARS-CoV-2 ORF7B 0.0451 | SARS-CoV-2 ORF8 = -0.00512 | SARS-CoV-2 ORF9B -0.106 | [1] -0.186 | SARS-CoV-2 S -0.043

B4: LGALS8, O00214 (protein)
chain: MMLSLNNLQNIIYNPVIPFVGTIPDQLDPGTLIVIRGHVPSDADRFQVDLQNGSSMKPRADVAFHFNPRFKRAGCIVCNTLINEKWGREEITYDTPFKREKSFEIVIMVLKDKFQVAVNGKHTLLYGHRIGPEKIDTLGIYGKVNIHSIGFSFSSDLQSTQASSLELTEISRENVPKSGTPQLRLPFAARLNTPMGPGRTVVVKGEVNANAKSFNVDLLAGKSKDIALHLNPRLNIKAFVRNSFLQESWGEEERNITSFPFSPGMYFEMIIYCDVREFKVAVNGVHSLEYKHRFKELSSIDTLEINGDIHLLEVRSW
inactive: SARS-CoV-2 M -0.0139 | SARS-CoV-2 N 0.065 | SARS-CoV-2 NSP1 = 0.0889 | SARS-CoV-2 NSP10 = 0.00816 | SARS-CoV-2 NSP12 = 0.0305 | SARS-CoV-2 NSP13 = 0.032 | SARS-CoV-2 NSP15 = -0.0865 | SARS-CoV-2 NSP2 = -0.0879 | SARS-CoV-2 NSP4 = -0.0216 | SARS-CoV-2 NSP5 = 0.0305 | SARS-CoV-2 NSP7 = 0.122 | SARS-CoV-2 NSP8 = 0.0257 | SARS-CoV-2 NSP9 = -0.0286 | SARS-CoV-2 ORF10 = 0.108 | SARS-CoV-2 ORF3A -0.0819 | SARS-CoV-2 ORF3B 0.0545 | SARS-CoV-2 ORF6 = 0.0157 | SARS-CoV-2 ORF7A 0.00745 | SARS-CoV-2 ORF7B -0.0176 | SARS-CoV-2 ORF8 = 0.0376 | SARS-CoV-2 ORF9B 0.00518 | [1] -0.0024 | SARS-CoV-2 S 0.00121
